From patent US20020013306A1, “TERPYRIDINE-PLATINUM(II) COMPLEXES” (priority 1996, published 2002)

Legend:
[1] = tested on: L. donovani (MHOM/ET/67/L82) amastigotes; assay: Leishmania donovani amastigotes in mouse peritoneal macrophages
Experimental: Leishmania: L. donovani (MHOM/ET/67/L82) amastigotes, derived from hamster spleen were used to infect mouse peritoneal macrophages in Labtek chamber slides. Infected macrophages were maintained in the presence of the drug at 30 μM and 3 μM in quadruplicate cultures for 5 days at 37° C. Drug activity is measured from % macrophages cleared of amastigotes in treated cultures. Sodium stibogluconate was used as the positive control.
The assays follow those outlined in Screen 1- Protocol 1 but include a range of doses in a dilution series from 30 μM. Dose response curves were analysed by linear regression and ED50 values determined. T. brucei numbers/ml are determined using a Coulter Counter.

[2] = Acid/base stability by NMR; conditions: trifluoroacetic acid in deuterated methanol; immediately and 1, 2, 4, 24 hours
Experimental: Diethylamine (2 ml) was added to a solution of 4′-aziridinoterpyridine (5 mg) in deuterated chloroform in a NMR tube.
Trifluoroacetic acid (5 g) was added to a solution of 4′-aziridinoterpyridine (15 mg) in deuterated methanol in an NMR tube. NMR spectra were recorded immediately and after 1, 2, 4 and 24 hours.

Molecule: 4-Picoline 4′-amino-2,2′:6′,2″-terpyridine platinum II tetrafluoroborate [X]
- % Inhibition, Leishmania donovani ([1]; 1 μM): 0%
- % Inhibition, Leishmania donovani ([1]; 3 μM): 100%
- % Inhibition, Leishmania donovani ([1]; 10 μM): 100%
- % Inhibition, Leishmania donovani ([1]; 30 μM): 100%

Molecule: c1ccc(-c2cc(N3CC3)cc(-c3ccccn3)n2)nc1 [4′-aziridinoterpyridine, 4′-Aziridino-2,2′:6′,2″-Terpyridine]
- stability to acid [2]: susceptible to nucleophilic attack in the presence of H^+

Molecule: Cc1ccncc1.F[B-](F)(F)F.F[B-](F)(F)F.[Pt+2].c1ccc(-c2cccc(-c3ccccn3)n2)nc1 [A, 4-picoline-2,2′:6′:2″-terpyridine-platinum(II) tetrafluoroborate]
- % Inhibition, Leishmania donovani ([1]; 1 μM): 0.5%
- % Inhibition, Leishmania donovani ([1]; 3 μM): 4.5%
- % Inhibition, Leishmania donovani ([1]; 10 μM): 1.2%

Molecule: Brc1cc[n+]([Pt-2]23[n+]4ccccc4-c4cccc([n+]42)-c2cccc[n+]23)cc1.F[B-](F)(F)F.F[B-](F)(F)F [Compound A1]
- % Inhibition, Leishmania donovani ([1]; 1 μM): 0%
- % Inhibition, Leishmania donovani ([1]; 3 μM): 0%
- % Inhibition, Leishmania donovani ([1]; 10 μM): 0.2%

Molecule: CC(=O)c1cc[n+]([Pt-2]23[n+]4ccccc4-c4cccc([n+]42)-c2cccc[n+]23)cc1.F[B-](F)(F)F.F[B-](F)(F)F [Compound A2]
- % Inhibition, Leishmania donovani ([1]; 1 μM): 0%
- % Inhibition, Leishmania donovani ([1]; 3 μM): 0.2%
- % Inhibition, Leishmania donovani ([1]; 10 μM): 27.0%
- % Inhibition, Leishmania donovani ([1]; 30 μM): 45.5%

Molecule: CN(C)c1cc[n+]([Pt-2]23[n+]4ccccc4-c4cccc([n+]42)-c2cccc[n+]23)cc1.F[B-](F)(F)F.F[B-](F)(F)F [Compound A3]
- % Inhibition, Leishmania donovani ([1]; 1 μM): 0%
- % Inhibition, Leishmania donovani ([1]; 3 μM): 0%
- % Inhibition, Leishmania donovani ([1]; 10 μM): 11.6%
- % Inhibition, Leishmania donovani ([1]; 30 μM): 97.5%

Molecule: F[B-](F)(F)F.F[B-](F)(F)F.Fc1cccc[n+]1[Pt-2]12[n+]3ccccc3-c3cccc([n+]31)-c1cccc[n+]12 [Compound A4]
- % Inhibition, Leishmania donovani ([1]; 1 μM): 0%
- % Inhibition, Leishmania donovani ([1]; 3 μM): 0%
- % Inhibition, Leishmania donovani ([1]; 10 μM): 31.5%
- % Inhibition, Leishmania donovani ([1]; 30 μM): 100%

Molecule: F[B-](F)(F)F.F[B-](F)(F)F.Fc1ccc[n+]([Pt-2]23[n+]4ccccc4-c4cccc([n+]42)-c2cccc[n+]23)c1 [Compound A5]
- % Inhibition, Leishmania donovani ([1]; 1 μM): 0%
- % Inhibition, Leishmania donovani ([1]; 3 μM): 0%
- % Inhibition, Leishmania donovani ([1]; 10 μM): 44.9%
- % Inhibition, Leishmania donovani ([1]; 30 μM): 96.9%

Molecule: F[B-](F)(F)F.F[B-](F)(F)F.c1cc[n+]2c(c1)-c1cccc3[n+]1[Pt-2]2([n+]1ccsc1)[n+]1ccccc1-3 [Compound A6]
- % Inhibition, Leishmania donovani ([1]; 1 μM): 0%
- % Inhibition, Leishmania donovani ([1]; 3 μM): 2.1%
- % Inhibition, Leishmania donovani ([1]; 10 μM): 30.8%

Molecule: CC#[N+][Pt-2]12[n+]3ccccc3-c3cccc([n+]31)-c1cccc[n+]12.F[B-](F)(F)F.F[B-](F)(F)F [Compound A8]
- % Inhibition, Leishmania donovani ([1]; 1 μM): 0%
- % Inhibition, Leishmania donovani ([1]; 3 μM): 3.9%
- % Inhibition, Leishmania donovani ([1]; 10 μM): 82.8%
- % Inhibition, Leishmania donovani ([1]; 30 μM): 100%

Molecule: F[B-](F)(F)F.F[B-](F)(F)F.OCc1cc[n+]([Pt-2]23[n+]4ccccc4-c4cccc([n+]42)-c2cccc[n+]23)cc1 [Compound A9]
- % Inhibition, Leishmania donovani ([1]; 1 μM): 0%
- % Inhibition, Leishmania donovani ([1]; 3 μM): 0.8%
- % Inhibition, Leishmania donovani ([1]; 10 μM): 61.5%

Molecule: F[B-](F)(F)F.F[B-](F)(F)F.[NH3+][Pt-2]12[n+]3ccccc3-c3cccc([n+]31)-c1cccc[n+]12 [Compound A12]
- % Inhibition, Leishmania donovani ([1]; 1 μM): 5.0%
- % Inhibition, Leishmania donovani ([1]; 3 μM): 27.5%
- % Inhibition, Leishmania donovani ([1]; 10 μM): 91.7%
- % Inhibition, Leishmania donovani ([1]; 30 μM): 90.1%

Molecule: [Cl-].[Cl-].[Pt+2].c1ccc(-c2cccc(-c3ccccn3)n2)nc1 [Compound A13, chloro(2,2′:6′,2″-terpyridine)platinum(II) chloride]
- % Inhibition, Leishmania donovani ([1]; 1 μM): 0%
- % Inhibition, Leishmania donovani ([1]; 3 μM): 22.0%
- % Inhibition, Leishmania donovani ([1]; 10 μM): 94.9%
- % Inhibition, Leishmania donovani ([1]; 30 μM): 99.1%

Molecule: Brc1ccc(-c2cc(-c3ccccn3)nc(-c3ccccn3)c2)cc1.F[B-](F)(F)F.F[B-](F)(F)F.N.[Pt+2] [Compound Q12, Ammonio 4′-(4-bromophenyl)-2,2′:6′,2″-terpyridine platinum II tetrafluoroborate]
- % Inhibition, Leishmania donovani ([1]; 3 μM): 100%
- % Inhibition, Leishmania donovani ([1]; 10 μM): 100%
- % Inhibition, Leishmania donovani ([1]; 30 μM): 100%

Molecule: Cc1cc[n+]([Pt-2]23[n+]4ccccc4-c4cc(Cl)cc([n+]42)-c2cccc[n+]23)cc1.F[B-](F)(F)F.F[B-](F)(F)F [I]
- % Inhibition, Leishmania donovani ([1]; 1 μM): 2.5%
- % Inhibition, Leishmania donovani ([1]; 3 μM): 47.9%
- % Inhibition, Leishmania donovani ([1]; 10 μM): 89.5%
- % Inhibition, Leishmania donovani ([1]; 30 μM): 93.3%

Molecule: Cc1cc[n+]([Pt-2]23[n+]4ccccc4-c4cc(-c5ccc(Br)cc5)cc([n+]42)-c2cccc[n+]23)cc1.F[B-](F)(F)F.F[B-](F)(F)F [Q]
- % Inhibition, Leishmania donovani ([1]; 1 μM): 31.4%
- % Inhibition, Leishmania donovani ([1]; 3 μM): 99.8%
- % Inhibition, Leishmania donovani ([1]; 10 μM): 100%
- % Inhibition, Leishmania donovani ([1]; 30 μM): 100%

Molecule: Cc1ccncc1.F[B-](F)(F)F.F[B-](F)(F)F.NNc1cc(-c2ccccn2)nc(-c2ccccn2)c1.[Pt+2] [R, (4-Picoline)(4′-Hydrazino-2,2′:6′,2″-Terpyridine) Platinum (II) Tetrafluoroborate]
- % Inhibition, Leishmania donovani ([1]; 1 μM): 0%
- % Inhibition, Leishmania donovani ([1]; 3 μM): 0%
- % Inhibition, Leishmania donovani ([1]; 10 μM): 0%

Molecule: CN(N)c1cc(-c2ccccn2)nc(-c2ccccn2)c1.Cc1ccncc1.F[B-](F)(F)F.F[B-](F)(F)F.[Pt+2] [S, (4-Picoline)(4′-(1 -Methylhydrazino)-2,2′:6′,2″-Terpyridine) Platinum (II) Tetra-fluoroborate]
- % Inhibition, Leishmania donovani ([1]; 1 μM): 0%
- % Inhibition, Leishmania donovani ([1]; 3 μM): 0%
- % Inhibition, Leishmania donovani ([1]; 10 μM): 0%
- % Inhibition, Leishmania donovani ([1]; 30 μM): 0%

Molecule: Cc1ccncc1.F[B-](F)(F)F.F[B-](F)(F)F.[Pt+2].c1ccc(-c2cc(N3CC3)cc(-c3ccccn3)n2)nc1 [T, (4-Picoline)(4′-Aziridino-2,2′:6′,2″-Terpyridine) Platinum (II) Tetra-fluoroborate]
- % Inhibition, Leishmania donovani ([1]; 1 μM): 0%
- % Inhibition, Leishmania donovani ([1]; 3 μM): 0%

Molecule: Cc1ccncc1.F[B-](F)(F)F.F[B-](F)(F)F.OCCNc1cc(-c2ccccn2)nc(-c2ccccn2)c1.[Pt+2] [U, (4-Picoline)(4′-(N-2-Hydroxyethyl)amino-2,2′:6′,2″-Terpyridine) Platinum (II) Tetrafluoroborate]
- % Inhibition, Leishmania donovani ([1]; 1 μM): 0%
- % Inhibition, Leishmania donovani ([1]; 3 μM): 0%
- % Inhibition, Leishmania donovani ([1]; 10 μM): 0%

Molecule: Cc1ccncc1.Cc1ccncc1.F[B-](F)(F)F.F[B-](F)(F)F.F[B-](F)(F)F.F[B-](F)(F)F.O=C(CCCCC(=O)NNc1cc(-c2ccccn2)nc(-c2ccccn2)c1)NNc1cc(-c2ccccn2)nc(-c2ccccn2)c1.[Pt+2].[Pt+2] [V, Adipoyl-Linked-Bis[4-Picoline(4′-Hydrazino-2,2′:6′,2″-Terpyridine) Platinum(II)] Tetrafluoroborate]
- % Inhibition, Leishmania donovani ([1]; 1 μM): 0%
- % Inhibition, Leishmania donovani ([1]; 3 μM): 0%
- % Inhibition, Leishmania donovani ([1]; 10 μM): 0%
- % Inhibition, Leishmania donovani ([1]; 30 μM): 0%

Molecule: CN(NC(=O)CCCCC(=O)NN(C)c1cc(-c2ccccn2)nc(-c2ccccn2)c1)c1cc(-c2ccccn2)nc(-c2ccccn2)c1.Cc1ccncc1.Cc1ccncc1.F[B-](F)(F)F.F[B-](F)(F)F.F[B-](F)(F)F.F[B-](F)(F)F.[Pt+2].[Pt+2] [W, Adipoyl-Linked-Bis[4-Picoline(4′-(1 -Methylhydrazino)-2,2′:6′,2″-Terpyridine) Platinum(II)] Tetrafluoroborate]
- % Inhibition, Leishmania donovani ([1]; 1 μM): 0%
- % Inhibition, Leishmania donovani ([1]; 3 μM): 0%
- % Inhibition, Leishmania donovani ([1]; 10 μM): 0%
- % Inhibition, Leishmania donovani ([1]; 30 μM): 0%

Molecule: Ammonio 4′-chloro-2,2′:6′,2″-terpyridine platinum II tetrafluoroborate [Compound I12]
- % Inhibition, Leishmania donovani ([1]; 1 μM): 99%
- % Inhibition, Leishmania donovani ([1]; 1 μM, listed as 12, 1 µM): completely cleared
- % Inhibition, Leishmania donovani ([1]; 3 μM): 99%
- % Inhibition, Leishmania donovani ([1]; 10 μM): 100%
- % Inhibition, Leishmania donovani ([1]; 30 μM): 100%
